The list shows a part of the results.
test system: PfHDP1 homeodomain (GST-tagged); assay: gcPBM binding intensity (ln(normalized median fluorescence intensity)); higher = stronger DNA binding
Procedure, shortened: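 GST-tagged P. falciparum DNA-binding domains produced in E. coli were incubated for 1 h on an Agilent 4 × 180k array of primer-extended double-stranded 36-bp intergenic genomic probes with negative controls. Binding intensity is the highest Masliner-normalised natural-log median intensity across replicate spots of either probe orientation, with bound protein detected by Alexa488 anti-GST antibody at 488 nm.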

Compared with “AAAACTATTTGTAAAAGTACATAATAAATAAATAAA [XGTACX_site7922]”, “ATAATGTTTTATAATACACACATTATGTATATAAAT [CACACA_site4077]” is higher in “gcPBM binding intensity (ln)” value: 6.45 for the first, 6.66 for the second.

Going from “GAATGTCTAATTTTGATGCACACTTTTGTGCAATTA [CACACA_site2902]” to “AAAATTCATATATACACACACGCACATATATATATA [CACACA_site90]”, the “gcPBM binding intensity (ln)” value falls from 11.1 to 9.04.

Compared with “TTATATTATTCGTGTGTGCACGATATTTCATAATTG [GTGCAC_site9767]”, “CAAAAAATTCAACACACACACACACCGATAAATAAA [CACACA_site8330]” is lower in “gcPBM binding intensity (ln)” value: 8.92 for the first, 6.66 for the second.

Compared with “ATTTAAATAAGATATACACACAAGTAGAAGACTATG [CACACA_site806]”, “TTTTCGATGTTGGTAGGAAGTTTGGTACACGTAGTA [TGCATGCA_negctrl_site145]” is lower in “gcPBM binding intensity (ln)” value: 6.66 for the first, 6.4 for the second.

Compared with “CGTATTTATAGAATTACACACCATATTGTAATTATT [CACACA_site7722]”, “TTTTTTTTGTAATACGCATGCTAAAAATATTTATAA [TGCATGCA_site656]” is higher in “gcPBM binding intensity (ln)” value: 6.47 for the first, 6.69 for the second.

Going from “GTGTTTTTATTATTTTGTACACATATATTTAATATT [XGTACX_site2109]” to “TATATATATATAAGCACACAAACAAAAAAAATTATA [CACACA_site3897]”, the “gcPBM binding intensity (ln)” value rises from 7.65 to 8.74.

Compared with “ATATTTTTTAGTAAGACGAAATAAATAAATCTTTAT [CACACA_negctrl_site1778]”, “ATTGAATATGTAAATGCACACCAAAAAAAAAAAAAA [CACACA_site9189]” is higher in “gcPBM binding intensity (ln)” value: 5.89 for the first, 9.61 for the second.

Going from “TTTTTCCTATTTTTAGTGCACATATAAATAAATAAA [GTGCAC_site9821]” to ATAACTTTATTCAGTTTGCACTTTTATAACAAAAGA, the “gcPBM binding intensity (ln)” value falls from 10.2 to 8.26.

First: ATTTTTTATATTTAGTGTACATGTTTTAATTTATAA [XGTACX_site7512]
Second: CTTATATAATTCGATAGTACATATTTTTATATATAT [XGTACX_site4045]
The “gcPBM binding intensity (ln)” value of the first is higher: 6.98 for the first, 6.26 for the second.

Going from “TATTACACATATTATACACACATATATTATAGATAT [CACACA_site6839]” to “TTTCTTTTTAAATGCTGTACAAAGGGTGACGTTAAA [XGTACX_site4724]”, the “gcPBM binding intensity (ln)” value falls from 7.33 to 6.7.

Going from “TATTCCAAATTTACTAGTACATAATCCATCCGATAA [XGTACX_site1558]” to “TTTCCTTATAAAAATACACACAAACTTTAATTAAAA [CACACA_site7710]”, the “gcPBM binding intensity (ln)” value rises from 6.38 to 6.54.

Compared with “TATATATATATATATTGTACACATTGTGTTTAAATA [XGTACX_site5104]”, “AATAGAATGTAATATACACACATATATTTCTCTTTT [CACACA_site2630]” is lower in “gcPBM binding intensity (ln)” value: 9.14 for the first, 6.38 for the second.

Going from “TTTTTATTGTTAATTTTAATTTTTTTTTTTTAATGC [CACACA_negctrl_site162]” to “TTGTAACCTATGCACGCACACAAGAAAAAAACAAAA [CACACA_site3775]”, the “gcPBM binding intensity (ln)” value rises from 6.2 to 9.33.

Going from “ATACAACAATGTGAATTATATATGGATGGAGAATGA [GTGCAC_negctrl_site148]” to “AAAAGGTATCCACATACGCACACCAAAAAAAAAAAT [CACACA_site347]”, the “gcPBM binding intensity (ln)” value falls from 6.89 to 6.74.

Going from “TCTTTTTTTTTTTTTTTTTTTTTTTATTTATTCATA [CACACA_negctrl_site1827]” to “TTCTTAAGGAACGAACGTACAGAATAAAAAGTAAAA [XGTACX_site4294]”, the “gcPBM binding intensity (ln)” value rises from 6.14 to 6.61.

Compared with “ACGTAAGCGAATAAAAGTACATATATTAAAAAAAAA [XGTACX_site4458]”, “TTGTGAAACATCAAGAAAAAGAAATAATAAAAAGAA [GTGCAC_negctrl_site38]” is higher in “gcPBM binding intensity (ln)” value: 6.36 for the first, 6.78 for the second.

First: GTTGAACATATATGCACACACATAAAATAAAAAAAA [CACACA_site2413]
Second: TTATATTAATATATATGTACATATATTTTTTTTATA [XGTACX_site6981]
The “gcPBM binding intensity (ln)” value of the first is higher: 9 for the first, 6.66 for the second.

Compared with “TAAAAATTGCACAGAAGTACAGTATAAATATATATA [XGTACX_site3421]”, “TTTCTATATTGGCATACATGCAAGAACGAAAAGATT [TGCATGCA_site117]” is lower in “gcPBM binding intensity (ln)” value: 10.2 for the first, 6.47 for the second.

Compared with “ATAATATATGAGCAATGTACATATTTCTCATTGCAC [XGTACX_site2253]”, “GTTCCAGGCATTCGTGCGCACAAATAGAAACAATTA [GTGCAC_site9824]” is higher in “gcPBM binding intensity (ln)” value: 7.78 for the first, 8.81 for the second.

First: TAAACATACCTATACACACACACACGCACACGCACA [CACACA_site6372]
Second: AATAGGAAGACTATTTTGTATTTGATTTTTTATTCC [GTGCAC_negctrl_site453]
The “gcPBM binding intensity (ln)” value of the first is higher: 7.88 for the first, 5.91 for the second.

Compared with “TAAGTATACGCATACACACACACACCCAAAAAAAAA [CACACA_site425]”, “CATTCAATTGAAAAATGTACAAAAATAAACATATGC [XGTACX_site1663]” is higher in “gcPBM binding intensity (ln)” value: 6.76 for the first, 7 for the second.

Compared with “TTAGATATGTGTAAGGGTACAAAATACTTTACATTT [XGTACX_site8204]”, “CTTCAATATATTCTTACACACTTAAAAAAAAAAATA [CACACA_site4287]” is higher in “gcPBM binding intensity (ln)” value: 6.17 for the first, 6.48 for the second.

First: ATAACTTGTATATATACACACACACCCTTTCTTTTT [CACACA_site8600]
Second: TATATTATATTATACATACACACCCATATAATATGT [CACACA_site869]
The “gcPBM binding intensity (ln)” value of the first is higher: 7.38 for the first, 7.03 for the second.

First: TTAAGAAATAACAATGCACACATTTAGGTCTTTTAT [CACACA_site3285]
Second: ATATATATGTTTTATAGTACACACATAAATGGACAT [XGTACX_site4538]
The “gcPBM binding intensity (ln)” value of the first is higher: 9.44 for the first, 6.68 for the second.

Going from “CTATTATTTTTAAATTGTACTATAACAAAATGTATA [XGTACX_site3916]” to “AAATAAATCTATAATACACACAAAAATATAAAATGC [CACACA_site7700]”, the “gcPBM binding intensity (ln)” value rises from 6.27 to 7.16.

First: TTTATATTTATATAAATATAATATATATGAATTATA [XGTACX_negctrl_site466]
Second: AAAGATGATAAAATATGTACACACAGTTTATACATT [XGTACX_site8703]
The “gcPBM binding intensity (ln)” value of the first is higher: 6.35 for the first, 6.1 for the second.

Going from “TGAGTCTTTTACATTGCACACACATTTCTTTCCTTT [CACACA_site8978]” to “ATTATCCATCAAAAGGTGCAAATTTTTAATTATAAA [GTGCAC_site9932]”, the “gcPBM binding intensity (ln)” value falls from 9.92 to 9.41.

Going from “TTTTTTGTTATTTTCCGTTTTTTTCCATTATAATTT [GTGCAC_negctrl_site461]” to “TATTCAAAGAAAAACTGTACGTGTAGCCTACATCCT [XGTACX_site7707]”, the “gcPBM binding intensity (ln)” value falls from 7.15 to 6.15.

First: ACGTTAAAAACAAGTTGTACACAATAAATTATTCTT [XGTACX_site6321]
Second: TATATATATATATGTAGTACTTTACAAAATAATTCG [XGTACX_site5322]
The “gcPBM binding intensity (ln)” value of the first is lower: 6.76 for the first, 9.21 for the second.

First: GCATAACCTTTATATTGTACATATACCTTTATTGTT [XGTACX_site6046]
Second: TTTATATTTATGTAGGTGCATTTGTTTACAACATAT [GTGCAC_site9511]
The “gcPBM binding intensity (ln)” value of the first is lower: 7.15 for the first, 9.76 for the second.

First: TTATTTATACGCTATGAGTTTGATACAAACAATTAA [XGTACX_negctrl_site456]
Second: TTTTTACGGAATTAGAGAAAAGAAATAAAAAAAAAA [XGTACX_negctrl_site436]
The “gcPBM binding intensity (ln)” value of the first is higher: 6.82 for the first, 6.28 for the second.

Going from “TAGTTATCACATTGCACACACATTTCCTTTTACATT [CACACA_site7589]” to “AATAAAAAAAAAATATATATTTTTTTTTTTTTTTTT [CACACA_negctrl_site54]”, the “gcPBM binding intensity (ln)” value falls from 9.83 to 6.57.

First: ATCTATTCACACTTTTAAAAATTAAATATATTATAT [TGCATGCA_negctrl_site610]
Second: TAATTTTTTTTTTATAGTACACATATTAAAGAATTA [XGTACX_site2485]
The “gcPBM binding intensity (ln)” value of the first is higher: 7.15 for the first, 6.27 for the second.

First: ATATATGTATATATGTACATGAATATATAAAGAAAA [CACACA_negctrl_site315]
Second: TATTTATACTAATATGCATGTAATCGAAATACAGCT [TGCATGCA_site457]
The “gcPBM binding intensity (ln)” value of the first is higher: 6.94 for the first, 6.33 for the second.

Compared with “GTTTATATTTAATTTTTTTGTTTTTTTGTGTAATTC [XGTACX_negctrl_site194]”, “ACAAATAAATAAATATGTACTTAATTATATAATTGA [XGTACX_site5626]” is lower in “gcPBM binding intensity (ln)” value: 6.56 for the first, 6.16 for the second.

Compared with “ATATATATAAACAAAAGTACATATATAAATTCATTT [XGTACX_site3482]”, “TTAAAGTTACATTCGACACACACATAACAACTAAAT [CACACA_site9130]” is higher in “gcPBM binding intensity (ln)” value: 6.31 for the first, 6.99 for the second.

First: TCTTATATTATATTGTGTATTAAAATTTAACTTCAA [TGCATGCA_negctrl_site565]
Second: TTTGTAGCACTTAAGAGTACAAAATGTATAAGATTT [XGTACX_site2321]
The “gcPBM binding intensity (ln)” value of the first is higher: 6.58 for the first, 6.53 for the second.

Going from “TTAATATAATTAAAATGTACTTATTTGTAAACATTA [XGTACX_site6313]” to “GACCATGTTAACAAAGCATGCATCTCTATATGTTTA [TGCATGCA_site358]”, the “gcPBM binding intensity (ln)” value rises from 5.98 to 6.87.

First: AAGAAAAACAATACGTGTACCAAGCATCCTACTAAC [XGTACX_site6628]
Second: AAAAAAAAAAGAAAGAGTACTTTTTCAATACATATA [XGTACX_site2468]
The “gcPBM binding intensity (ln)” value of the first is higher: 6.63 for the first, 6.09 for the second.

Going from “TTATTTTATAAATCGAAAACAAACAAAAAAAAGATA [XGTACX_negctrl_site178]” to “TTGCTGTATTTATTTTGTACACATTTGGCATTATAT [XGTACX_site3408]”, the “gcPBM binding intensity (ln)” value rises from 6.69 to 7.28.

First: ACATAAAATAAATATACACACATATGTATATATCAT [CACACA_site7424]
Second: CAAATACATAGACACACACACATATACATATTTATA [CACACA_site7610]
The “gcPBM binding intensity (ln)” value of the first is lower: 6.52 for the first, 6.73 for the second.

Compared with “TTTATATTTAAATGCATGCACTTTCTATTTTTTTTT [GTGCAC_site9959]”, “GAATAAAGGAGAGGCACACATATATATATATATATA [CACACA_site2452]” is higher in “gcPBM binding intensity (ln)” value: 7.46 for the first, 9.33 for the second.

Going from “TATTTGATAAATTATACACACACAATATATATAAAA [CACACA_site8625]” to “GAGGATCATCAATTCACACACATAAAAATGAAGTTA [CACACA_site3078]”, the “gcPBM binding intensity (ln)” value falls from 6.61 to 6.

Going from “TATATAAAATTCTATTGTACATGTTATACGAAAGAA [XGTACX_site5711]” to “CAACGATACAAAAAAGGTACACATATATATATATAT [XGTACX_site8688]”, the “gcPBM binding intensity (ln)” value rises from 6.54 to 9.23.
